# Screen size: about 310,000 compounds; about 14,000 (4.5%) showed an effect of 50% or more. The effect is printed as a negative number. Some of the results follow.
# Molecular target: human ether-à-go-go-related gene (hERG) potassium channel (human, UniProt Q12809)
# Experiment: primary screen, population patch clamp on CHO cells stably expressing hERG
# 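Note: peak tail current of the secondary pulse compared with the same well before compound.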
# Chain of human ether-à-go-go-related gene (hERG) potassium channel (Q12809 whole entry, looked up): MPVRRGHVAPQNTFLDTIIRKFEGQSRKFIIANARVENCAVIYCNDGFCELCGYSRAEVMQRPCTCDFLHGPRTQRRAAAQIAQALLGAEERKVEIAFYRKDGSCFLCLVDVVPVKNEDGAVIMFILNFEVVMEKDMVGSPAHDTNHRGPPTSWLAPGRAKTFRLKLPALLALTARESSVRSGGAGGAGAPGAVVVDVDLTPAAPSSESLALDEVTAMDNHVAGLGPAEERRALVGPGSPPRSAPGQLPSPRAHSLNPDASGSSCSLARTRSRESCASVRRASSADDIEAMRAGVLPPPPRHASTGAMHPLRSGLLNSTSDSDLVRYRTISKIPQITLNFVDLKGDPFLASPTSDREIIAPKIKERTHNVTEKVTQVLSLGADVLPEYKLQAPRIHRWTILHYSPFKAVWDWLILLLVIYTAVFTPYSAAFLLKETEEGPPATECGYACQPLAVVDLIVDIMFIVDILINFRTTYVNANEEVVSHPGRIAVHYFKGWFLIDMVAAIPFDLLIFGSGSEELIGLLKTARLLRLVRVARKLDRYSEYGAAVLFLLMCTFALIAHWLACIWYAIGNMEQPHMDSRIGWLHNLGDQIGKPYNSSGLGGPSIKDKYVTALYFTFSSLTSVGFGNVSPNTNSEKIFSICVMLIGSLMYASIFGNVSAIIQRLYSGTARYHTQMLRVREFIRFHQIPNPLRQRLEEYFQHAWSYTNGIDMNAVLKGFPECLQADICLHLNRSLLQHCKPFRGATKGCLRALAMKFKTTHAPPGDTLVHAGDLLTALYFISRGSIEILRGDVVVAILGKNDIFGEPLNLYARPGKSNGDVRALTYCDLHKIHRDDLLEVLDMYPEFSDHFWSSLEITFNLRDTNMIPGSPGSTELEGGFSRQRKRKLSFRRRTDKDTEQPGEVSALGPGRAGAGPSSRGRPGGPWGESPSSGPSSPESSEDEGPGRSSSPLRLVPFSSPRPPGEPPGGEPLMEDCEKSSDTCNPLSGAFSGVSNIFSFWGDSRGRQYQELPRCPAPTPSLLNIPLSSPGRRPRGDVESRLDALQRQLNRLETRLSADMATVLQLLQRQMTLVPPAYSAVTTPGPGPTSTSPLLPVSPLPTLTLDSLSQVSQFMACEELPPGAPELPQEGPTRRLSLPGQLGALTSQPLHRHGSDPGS
row,Structure (SMILES),"hERG current change (%, negative = inhibition) at 10uM"
1,Cc1ccccc1-n1nnnc1SCc1cc(=O)n2ccsc2n1,-25.6%
2,CCOC(=O)c1sc(Nc2ccccc2)nc1C,8.63%
3,CCOc1ccc(C(=O)NNC2CC(=O)N(Cc3ccc(Cl)cc3)C2=O)cc1OC (centres unmarked),-19.2%
4,CC(C)(C)[C@H]1C=C(C(=O)N2CCN(Cc3ccccc3)CC2)O[C@@H](OCc2ccc(CO)cc2)C1,-38.9%
5,COc1ccc(NC(=O)CC2CC3CCC2C3)cn1 (centres unmarked),15%
6,Cl.c1ccc(CCNCc2cccnc2)cc1,-0.175%
7,O=C(CSc1nnnn1-c1ccc2c(c1)OCCO2)N1CCc2ccccc21,-21.2%
8,CCOC(=O)C1=C(N)OC(CCl)=C(C#N)C1c1ccsc1 (centres unmarked),8.35%
9,Cc1ccc(CNC(=O)CN2C(=O)C3(OCCCO3)c3ccccc32)cc1,-5.97%
10,CN(C)S(=O)(=O)c1cccc(NC(=O)CCNC(=O)c2ccccc2Cl)c1,6.65%
11,COc1cc(/C=C2/SC(=Nc3ccc(O)cc3)NC2=O)ccc1O,-9.73%
12,O=C(OCC(=O)N1CCCC1=O)c1cccc([N+](=O)[O-])c1,19.9%
13,CCOC(=O)c1cnc(SC2CCc3ccccc3C2=O)nc1N (centres unmarked),-19.1%
14,COCc1cc(C)nc(Nc2ccc(C)cc2C)c1C#N,7.57%
15,COC(=O)CC1=C(C(=O)OC)[C@@H](c2ccccc2[N+](=O)[O-])C(C#N)=C(N)O1,3.86%
16,O=C(/C=C/c1ccccc1)N/C(=C\c1ccco1)C(=O)NCCO,-5.59%
17,CNc1nc(C)c(C(=O)c2ccc(Cl)cc2)s1,-7.58%
18,COc1ccc(-c2c(C#Cc3ccsc3)c3cc(-c4ccc(OC)c(F)c4)ccc3n2C)cc1,14.5%
19,O=C(CSc1cccc[n+]1[O-])Nc1ccc2c(c1)OCCO2,17.2%
20,O=C(N/N=C/c1cc([N+](=O)[O-])ccc1O)c1cccc(N2CCCC2=O)c1,3.22%
21,COc1cc(/C=N/N2CCN(Cc3ccc(C)cc3)CC2)cc(OC)c1O,-43%
22,CCOc1ccc(S(=O)(=O)n2nc(C)c(S(=O)(=O)N3CCOCC3)c2C)cc1,15.2%

row,Structure (SMILES),"hERG current change (%, negative = inhibition) at 10uM"
1,CC(C)(C)NC(=S)NCc1cccnc1,-1.7%
2,COc1ccc(-c2oc(NC(=O)CCl)c(C#N)c2-c2ccc(OC)cc2)cc1,4.25%
3,O=C(Nc1nnc(C2CC2)s1)c1n[nH]c(=O)c2ccccc12,-3.46%
4,CCN1CCN(c2ccc(S(=O)(=O)N(CC)CC)cc2[N+](=O)[O-])CC1,-12.1%
5,COCc1ccc([C@@H]2C[C@H]3CN(Cc4ccccc4C)C(=O)[C@]34CCCN24)o1,-11.2%
6,CCc1ccc(C(=O)NNC(=O)Cn2c(=O)cnc3ccccc32)cc1,-3.44%
7,COc1ccc(CCNC(=O)C2CCCN(S(=O)(=O)N3CCCCCC3)C2)cc1OC (centres unmarked),8.33%
8,CCn1c(=O)c(C(=O)NNS(=O)(=O)c2ccc(NC(=O)OC)cc2)c(O)c2ccccc21,-56.3%
9,CNC(=O)Cn1c(=O)n(C)c2ccccc21,-1.9%
10,C=CCN1C(=O)CC(C(=O)NC)SC1=Nc1ccc(C(=O)OCC)cc1 (centres unmarked),11%
11,Cc1ccc(C(C)C)c(OCC(O)CN(C)Cc2ccccc2)c1.Cl (centres unmarked),-33.3%
12,C=CCN(Cc1ccco1)S(=O)(=O)c1ccc(Cl)cc1,4.62%
13,COc1cccc(C(=O)Nc2ccc(N3CCN(Cc4ccccc4)CC3)cc2)c1,-5.56%
14,COc1ccc(NC(=O)C2CCC(N3C(=O)C4CCCCC4C3=O)CC2)cc1 (centres unmarked),11%
15,CCN(CC)C(=O)CSC1c2ccccc2C(=O)N1c1ccccc1 (centres unmarked),-11.8%
16,O=C(Nc1ccc2c(c1)OCO2)C1CCCCN1S(=O)(=O)c1ccccc1 (centres unmarked),-10.9%
17,CCOC(=O)N1CCC(N2C(=O)c3ccccc3C2Nc2ccccc2C)CC1 (centres unmarked),-46.5%
18,CC(C)(C)c1nc(N)nc(=O)[nH]1,-1.18%
19,CC(=N\NC(=O)c1ccc([N+](=O)[O-])cc1)/C(=N/O)C(=O)Nc1ccccc1,-14.6%
20,Cc1onc(-c2ccccc2Cl)c1C(=O)N(Cc1ccc(N(C)C)cc1)C(C)C,10.8%
21,CC(C)Oc1ccc(C(=O)Nc2ccc(N3CCN(C(=O)c4ccco4)CC3)cc2)cc1,4.11%
22,Cc1ccc(C(C(=O)NCc2ccc(F)cc2)N(Cc2ccco2)C(=O)c2snc(C(N)=O)c2N)o1 (centres unmarked),4.15%

# From paper PMC4336329 (PLoS ONE, 2015)
